According to PubChem BioAssay AID1645887 (National Center for Advancing Translational Sciences (NCATS), 2021):
Where “and” joins values, the source holds several entries; their conditions need not be identical. Identical values can stand only once. Out of some 16,000 compounds screened, about 40 (0.2%) were called active. Not shown: some 1% with an inconclusive outcome. Calls follow the shape of the dose curve; as a rule, active = well fitted activation curve with a large enough effect; inconclusive = small, poorly fitted or top-dose-only effect, or another doubt; inactive = no such curve, though single readings can be large or run the other way. This is one part of the list. Non-standard residues stand in square brackets, D forms with d. Residues, ends and D or L forms follow the SMILES beside them.

These compounds were tested against Rap guanine nucleotide exchange factor 4 (Homo sapiens) (UniProt Q8WZA2) (assay: Validation qHTS for agonist of cAMP-regulated guanine nucleotide exchange factor 4 (EPAC2)). Settings: EPAC2 Rap1B BODIPY-GDP exchange, fluorescence; activation: hits give high values.
Procedure, shortened: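 Signal normalized against 6.5 mM cAMP as agonist control. Mix of EPAC2 (100 nM), RAP1B-BODIPY-GDP (250 nM) and GDP (50 uM) was read kinetically at 480/540 nm, every 5 min over 30 min, after 5 min room-temperature incubation with compound.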
% is scaled to controls: 0 for no effect and ±100 for the full control effect.
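Also: exchange makes BODIPY-GDP fluorescence drop when released from Rap1B; series mostly up to about 150 µM.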

Sequence of UniProt Q8WZA2 (Q8WZA2 whole entry, looked up): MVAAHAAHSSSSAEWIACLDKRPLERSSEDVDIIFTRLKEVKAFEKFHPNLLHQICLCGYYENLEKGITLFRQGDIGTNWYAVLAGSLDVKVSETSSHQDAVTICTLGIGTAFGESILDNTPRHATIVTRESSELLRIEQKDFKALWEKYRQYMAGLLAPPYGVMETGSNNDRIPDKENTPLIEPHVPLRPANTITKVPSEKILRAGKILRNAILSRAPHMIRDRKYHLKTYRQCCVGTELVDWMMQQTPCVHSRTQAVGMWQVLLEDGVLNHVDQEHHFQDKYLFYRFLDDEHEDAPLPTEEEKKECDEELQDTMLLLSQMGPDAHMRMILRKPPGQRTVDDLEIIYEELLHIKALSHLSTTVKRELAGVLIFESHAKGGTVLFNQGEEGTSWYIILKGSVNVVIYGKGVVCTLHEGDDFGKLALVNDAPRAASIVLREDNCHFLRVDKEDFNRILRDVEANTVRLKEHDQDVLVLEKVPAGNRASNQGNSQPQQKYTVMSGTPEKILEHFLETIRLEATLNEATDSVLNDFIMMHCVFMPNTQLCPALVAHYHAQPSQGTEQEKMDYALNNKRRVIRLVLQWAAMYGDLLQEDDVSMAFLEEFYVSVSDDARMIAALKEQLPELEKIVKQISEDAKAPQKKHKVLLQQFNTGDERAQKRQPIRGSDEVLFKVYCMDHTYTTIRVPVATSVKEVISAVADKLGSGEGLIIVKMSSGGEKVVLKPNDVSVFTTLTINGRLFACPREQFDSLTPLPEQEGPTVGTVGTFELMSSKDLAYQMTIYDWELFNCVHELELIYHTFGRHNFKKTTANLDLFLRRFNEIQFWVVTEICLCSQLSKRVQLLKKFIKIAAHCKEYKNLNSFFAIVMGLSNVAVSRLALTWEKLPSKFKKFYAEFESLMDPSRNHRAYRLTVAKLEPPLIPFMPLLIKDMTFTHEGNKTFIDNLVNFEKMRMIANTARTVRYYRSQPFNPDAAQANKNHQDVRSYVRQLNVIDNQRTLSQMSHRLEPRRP

activation, inactive:
COc1cccc(Cn2c(=O)c(-c3cccc(C#N)c3)nc3cnc(Nc4ccccc4)nc32)c1 29%, CC(C)=CCc1c(O)cc2oc(C)cc(=O)c2c1O -8.82%, C=CS(=O)(=O)N(Cc1ccccc1Br)[C@H](CO)Cc1ccccc1 -28.9%, O=C(Nc1ccccc1)N1CCC2(CC1)CCN(C(=O)c1cnccn1)CC2 -10%, COc1cccc(-c2cc(NCc3cccc(C)c3)ncn2)c1 4.48%, CCCOC(=O)C1=C(C)CS[C@@H]2[C@H](NC(=O)COc3ccccc3)C(=O)N12 -9.76%, COc1ccc2ccccc2c1CN1CCc2nnc(CNC(=O)c3cccc(F)c3)n2CC1 -6.81%, N[C@@H](Cc1cc(I)c(O)c(I)c1)C(=O)O -7.95%, CC(=O)N1CCC[C@@]2(CCN(c3ncccn3)C2)C1 -5.64%, O=C(Nc1ccc(S(=O)(=O)N2CCOCC2)cc1)c1cc(Cl)ccc1NS(=O)(=O)c1ccc(Cl)s1 -15%, CC12CC3CC(C)(C1)CC(N)(C3)C2 13.3% and -9.19% and -40.6%, OCCO[C@@H]1[C@@H](O)[C@H](O)[C@@H](CO)O[C@@H]1O -14.4%, CSCC[C@H](C=O)NC(=O)[C@H](CC(C)C)NC(=O)[C@H](CC(C)C)NC(C)=O (Ac-Leu-Leu-[dM]-aldehyde) -15.8%, COc1cc(-c2c(OC)cccc2OC)cc2c1OCCN(C(=O)CCn1nc(C)cc1C)C2 -16.4%, CCCCCCCC[N+](C)(C)CCCCCCCC -22% and -6.82%, Cc1c(C(=O)N2CCN(C(C)C)CC2)sc2ncnc(NCc3ccco3)c12 2.1%, COc1ccc(C(=O)N2CCC3(CC2)CCN(c2ccncc2)CC3)cc1 -15.3%, CS(=O)(=O)OCCCNCCCOS(C)(=O)=O -17.3%, COC(=O)N1CCC2(CCN(Cc3ccccc3OC)CC2)CC1 -5%, O=C(c1ccc(F)c(F)c1)N1CCOc2ccc(CN3CCN(Cc4ccccn4)CC3)cc2C1 -0.854%, O=C(NCCc1ccccc1)[C@@H]1CC=C[C@@H]2CCN(Cc3ccccc3)C(=O)[C@@H]21 -13.8%, CC/C=C\C/C=C\C/C=C\C/C=C\C/C=C\C/C=C\CCC(=O)O 9.44% and -2.86% and 0.0557%, CSCCC(N)C(=O)NC(CC(C)C)C(=O)NC(Cc1ccccc1)C(=O)O (stereo not drawn) -5.88%, COc1ccc(-c2cc3ccccc3c(=O)o2)cc1 -37.6%, O=C(O)CCCCCCCCc1cn(CC2CCCCC2)nn1 1.29%, C[C@]12CCC(=O)C=C1CCC1C2C(O)C[C@]2(C)C1CC[C@]2(O)C(=O)COC(=O)CCC(=O)O (stereo partly drawn) -1.56%, OC[C@H]1NC[C@@H](O)[C@@H](O)[C@H]1O 1.88%, CCCCC[C@H]1CN(Cc2ccc(OC)cc2)C(=O)[C@@H]1CC(=O)NCc1ccccc1 -26.5%, Nc1nc2c(nc(Br)n2C2OC(CO)C(O)C2O)c(=O)[nH]1 (stereo not drawn) 8.69%, O=C1CCN(CCc2ccccc2)CCN1[C@H](CSc1ccccc1)Cc1ccccc1 -18.1%, O=C(Oc1ccccc1)N1CCC2(CC1)CCN(c1ccccc1)CC2 6.13%, COCC(=O)N1CCC2(CCCN(Cc3nccs3)C2)CC1 -1.63%, Cc1ccc2nc(SCC(=O)NCC3Cc4cc(-c5ncccc5C)ccc4O3)[nH]c2c1 (stereo not drawn) -23.7%, CN1CCCN=C1/C=C/c1cccs1 0.422%, CC(=O)N1CCN(c2nc3cc(C)ccc3cc2CN(C(=O)c2cccc3ccccc23)C2CC2)CC1 -3.13%, C[C@@H](CSc1ccc(Br)cc1)CN1CC[C@H](NC(=O)OCc2ccccc2)CCC1=O -41%, CO[C@H]1C[C@@H]2CC[C@@H](C)[C@@](O)(O2)C(=O)C(=O)N2CCCC[C@H]2C(=O)O[C@H]([C@H](C)C[C@@H]2CC[C@@H](OC(=O)C(C)(CO)CO)[C@H](OC)C2)CC(=O)[C@H](C)/C=C(\C)[C@@H](O)[C@@H](OC)C(=O)[C@H](C)C[C@H](C)/C=C/C=C/C=C/1C -34.6%, COC(=O)c1cc(CNC(=O)c2cccc3ccccc23)cc(NC(=O)c2ccccc2OC)c1 4.35%, O=C(C[n+]1cccc2cccc(O)c21)c1ccc(Br)cc1 -11.2%, CCC[C@@H]1C[C@@H](C(=O)N[C@@H]([C@H]2O[C@H](SC)[C@H](O)[C@@H](O)[C@H]2O)[C@@H](C)O)N(C)C1 -8.27%, COc1ccc(CN2CCOc3ccc(CN4CCC(O)(c5cccnc5)CC4)cc3C2)c(C)c1C -5.48%, COc1ccc(C(=O)N2CCC3(CCCN(c4ccccn4)C3)CC2)cc1 0.0532%, COc1ccccc1CCNc1ncnc2sc(C(=O)N3CCCCC3)c(C)c12 -7.43%, C=C1C(N)CC2CC1C2(C)C (stereo not drawn) -6.88%, CCCCCCCC(=O)O[C@H](CC(=O)O)C[N+](C)(C)C -3.66%, COc1cccc(CN2CCOc3ccc(C(O)c4cccnc4)cc3C2)c1 (stereo not drawn) 3.28%, COCC(=O)N1CCC2(CCCN(Cc3ccccc3OC)C2)CC1 3.47%, O=c1cc[nH]c(=O)[nH]1 -8.19%, CCNc1ncc2nc(-c3cn(C)c4ccccc34)c(=O)n(C)c2n1 -3.91%, Cc1ccc2c(c1)CN(C(=O)CC(c1ccccc1)c1ccco1)CC(C)O2 (stereo not drawn) -18.6%, COc1ccc(CNc2nc(-c3c(C)noc3C)nc3ccccc23)c(OC)c1 19%, O=C(NCc1cccnc1)[C@@H]1CC=C[C@@H]2CCN(Cc3ccccc3)C(=O)[C@@H]21 -18.6%, COc1ccc(-c2cc(=O)c3c(OC)c(OC)c(OC)c(OC)c3o2)cc1OC 0.846%, CC(=O)O[C@]1(C(C)=O)CC[C@H]2[C@@H]3CCC4=CC(=O)CC[C@]4(C)[C@@]3(F)[C@@H](O)C[C@@]21C -22.4%, CN(CCO)C(=O)c1cn(C2CCCN(Cc3cc4ccccc4s3)C2)nn1 (stereo not drawn) -6.63%, Cc1cccc(CNc2cc(-c3ccccc3C)ncn2)c1 -23.7%, CC1(C)O[C@@H]2C[C@@H]3[C@H]4C[C@@H](F)C5=CC(=O)C=C[C@]5(C)[C@@]4(F)[C@@H](O)C[C@]3(C)[C@]2(C(=O)CO)O1 -12.6%, O=C(c1csnn1)N1CCC2(CC1)CCN(c1ncccn1)CC2 -6.28%, Cc1nc2cnc(OCc3ccccc3)nc2n(CCC#N)c1=O -17.2%, CC(N)=NCc1cccc(CN)c1 -5.15% and -3.61%, Cc1noc(C)c1C(=O)N1CCC[C@@]2(CCN(C(=O)Nc3ccccc3)C2)C1 7.02%, Cc1cc(CC(=O)O)c(C)n1-c1ccc(Cl)cc1 -0.347%, O=C(c1cc(C(F)(F)F)cc(C(F)(F)F)c1)N1CCC2(CC1)CCN(c1ncccn1)CC2 -10.1%, CCn1nc(C)cc1C(=O)NCC1CCC2(CCN(Cc3ccccc3F)CC2)O1 (stereo not drawn) -14.5%, CC(=O)/C=C\C1[C@]2(C)CCCC(C)(C)C2CC[C@@]1(C)O (stereo partly drawn) 1.26%, CC(CN1CCc2nnc(CNC(=O)c3cccc(F)c3)n2CC1)c1ccccc1 (stereo not drawn) -11.2%, COc1ncc2nc(CCc3ccccc3)c(=O)n(Cc3cccs3)c2n1 8.82%, CCOC(CN1CCN(CC(C)C(=O)c2ccccc2)CC1)c1ccccc1 (stereo not drawn) 3.96%, OCC(CO)N[C@H]1C[C@](O)(CO)[C@@H](O)[C@H](O)[C@H]1O 1.34%, C=CCNc1ncnc2ccc(Br)cc12 -25.8%, COc1ncc2nc(-c3cccs3)c(=O)n(CCC#N)c2n1 3.34%, CC(=O)Oc1ccc(C2(c3ccc(OC(C)=O)cc3)Oc3ccccc3NC2=O)cc1 -4.9%, COc1ccc(CNc2ncncc2-c2ccccc2C)c(OC)c1 -18.7%, COc1cccc(-c2ccc(O)c(CNCc3cccc4ccccc34)c2)n1 -5.14%, COc1cccc(C2(CC(=O)N3CCC(c4nc5ccc(F)cc5[nH]4)CC3)CC(=O)N(C)C2=O)c1 (stereo not drawn) -0.914%, COc1ccc(C[C@@H](C)NC[C@H](O)c2ccc(O)c(NC=O)c2)cc1 2.52%, O=C(CCCN1CCC(n2c(=S)[nH]c3ccccc32)CC1)c1ccc(F)cc1 -4.17%, C#CC1(O)CC[C@H]2[C@@H]3CCC4=CCCC[C@@H]4[C@H]3CC[C@@]21C (stereo partly drawn) 7.28%, COC(=O)[C@@H]1CCCN1Cc1ccc2c(c1)CN(Cc1ccc3c(c1)CCO3)CCO2 4.1%, CCCCN1CCC[C@@H]1CNC(=O)c1cc(C#N)c2ccccc2c1OC -2.39%, CC[C@H]1c2[nH]c3ccc(C(C)C)cc3c2[C@@H]2CCN3C(=O)CCC[C@H]1[C@H]23 -30.3%, COCc1c(C(=O)NC2CCCC2)cnn1-c1nccc(-c2cccs2)n1 -13%, CC(C)NC(=O)N1CCC2(CC1)CCN(C(=O)c1csnn1)CC2 -8.1%
